# In all, about 310,000 compounds went through this assay and about 2,200 (0.71%) showed an effect of 50% or more. Effects have a minus sign here. This is one part of the list.
# Target: human ether-à-go-go-related gene (hERG) potassium channel (human, UniProt Q12809)
# Experiment: primary screen, population patch clamp on CHO cells stably expressing hERG
# Sequence of human ether-à-go-go-related gene (hERG) potassium channel (Q12809 whole entry, looked up): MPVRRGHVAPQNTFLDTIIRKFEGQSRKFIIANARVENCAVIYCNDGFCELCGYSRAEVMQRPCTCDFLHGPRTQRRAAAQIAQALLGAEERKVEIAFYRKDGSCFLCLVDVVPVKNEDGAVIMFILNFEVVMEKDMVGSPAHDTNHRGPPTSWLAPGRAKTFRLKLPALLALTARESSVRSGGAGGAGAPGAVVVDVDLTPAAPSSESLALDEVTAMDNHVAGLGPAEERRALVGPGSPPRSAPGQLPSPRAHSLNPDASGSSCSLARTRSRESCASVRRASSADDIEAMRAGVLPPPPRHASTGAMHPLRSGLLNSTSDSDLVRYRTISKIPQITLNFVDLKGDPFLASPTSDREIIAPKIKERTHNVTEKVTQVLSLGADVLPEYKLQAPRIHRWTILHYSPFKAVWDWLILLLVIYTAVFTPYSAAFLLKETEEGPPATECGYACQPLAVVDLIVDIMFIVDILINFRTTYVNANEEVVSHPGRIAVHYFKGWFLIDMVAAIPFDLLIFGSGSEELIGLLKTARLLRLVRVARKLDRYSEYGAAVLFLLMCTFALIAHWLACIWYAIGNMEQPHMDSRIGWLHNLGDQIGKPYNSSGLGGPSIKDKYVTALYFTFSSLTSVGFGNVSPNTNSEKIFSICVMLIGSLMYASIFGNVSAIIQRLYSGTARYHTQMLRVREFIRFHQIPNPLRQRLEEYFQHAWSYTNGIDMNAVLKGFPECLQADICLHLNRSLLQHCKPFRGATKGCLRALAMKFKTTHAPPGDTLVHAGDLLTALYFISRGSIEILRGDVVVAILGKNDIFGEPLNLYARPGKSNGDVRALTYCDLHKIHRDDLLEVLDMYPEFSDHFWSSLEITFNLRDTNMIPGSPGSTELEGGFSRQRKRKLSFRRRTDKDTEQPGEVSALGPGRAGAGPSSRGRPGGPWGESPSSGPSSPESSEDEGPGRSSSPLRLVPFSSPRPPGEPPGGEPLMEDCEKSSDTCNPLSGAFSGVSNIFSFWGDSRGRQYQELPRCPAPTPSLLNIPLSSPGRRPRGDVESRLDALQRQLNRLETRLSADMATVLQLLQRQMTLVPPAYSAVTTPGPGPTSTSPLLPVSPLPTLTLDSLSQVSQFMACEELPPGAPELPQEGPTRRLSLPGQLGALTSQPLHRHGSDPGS
row,Compound,"hERG current change (%, negative = inhibition) at 1uM [%]"
1,Cc1ccc2c(C)nc(/N=C(\N)NC(=O)N3c4ccccc4Sc4ccccc43)nc2c1,12.9
2,COCC(=O)Nc1c(C(=O)Nc2ccccc2OC)oc2ccccc12,1.31
3,NC(=O)Nc1ccccc1C(=O)Nc1ccc2ccccc2c1,15.1
4,CN1N=C(C(C)(C)C)CC1=O,9.34
5,COc1ccc(-n2nc(C(=O)N3CCCCC3)c3ccccc3c2=O)cc1,1.59
6,CCCCNC(=S)NNC(=O)c1c(C)nc2ccccn12,16.1
7,COc1cccc(NC(=O)c2ccc(-c3ccccc3[N+](=O)[O-])o2)c1,-2.99
8,Cc1cccc(Nc2n[nH]c(=S)s2)c1C,11.6
9,CCOC(=O)c1sc(NC(=O)CN2C(=O)NC3(CCC(C)CC3)C2=O)c(C(=O)OCC)c1C (stereo not shown),8.8
10,CCOc1ccc(N=C2SC(C(=O)Nc3ccccc3C#N)C(N)=C2C(=O)Nc2ccc(Cl)cc2)cc1 (stereo not shown),14.1
11,O=C(CC12CCC(CC1)C2)NCc1ccc2c(c1)OCO2,11.3
12,CN1CC(=O)N(CC(=O)N2CCC(Cc3ccccc3)CC2)C1=O,11.9
13,COc1ccc(C(=O)Nc2c3c(nn2-c2ccc(Cl)cc2)CS(=O)(=O)C3)cc1,12.2
14,CC1CCN(c2c(NCC3CCC(C(=O)N4CCc5ccccc5C4)CC3)c(=O)c2=O)CC1 (stereo not shown),11
15,CC(C)NCC(O)COCCOc1ccc(C(C)(C)C)cc1.Cl (stereo not shown),-2.27
16,CCOc1ccc2nc(N3CCCCCC3)sc2c1,-13.2
17,CCOCCCNC(C(=O)Nc1ccc(OC)c(Cl)c1)c1ccccc1 (stereo not shown),-10.2
18,COc1ccc(-c2sc3cc(OC)c(OC)cc3c2C#CC(C)(C)O)cc1,17.8
19,COc1ccccc1N1CCN(CCC(=O)Nc2ccc(F)cc2)CC1,10.2
20,COc1cccc(C(=O)Nc2ccc(S(=O)(=O)N3CCN(C)CC3)cc2)c1,2.57
21,O=C(COC(=O)c1ccc(F)cc1)NCCCc1ccccc1,4.68
22,O=C(c1ccc(S(=O)(=O)Nc2cccc(C(F)(F)F)c2)cc1)N1CCN(c2ccccc2O)CC1,0.994

row,Compound,"hERG current change (%, negative = inhibition) at 1uM [%]"
1,CC(C)CN(C(=O)c1cccc(S(=O)(=O)N2CCN(Cc3ccccc3)CC2)c1)C1CCS(=O)(=O)C1 (stereo not shown),6.94
2,Cc1cc(/C=C2\C(=O)NN(c3ccccc3)C2=O)c(C)n1-c1ccccc1O,13
3,COc1ccc(O)c(C(=O)CC(=O)c2ccc(F)cc2)c1,1.21
4,CCCCOC(=O)c1ccc(NC(=O)c2ocnc2C)cc1,-2.1
5,COc1cc(/C=N/Nc2cccc(C)c2)ccc1OC(=O)c1ccco1,11.2
6,Cc1cc(-c2ccc(C)c(S(=O)(=O)NCCc3ccc(S(N)(=O)=O)cc3)c2)on1,23.9
7,Cc1ccc(N2C(=O)N(CC(=O)NCc3ccccc3Cl)C(=O)C2C)cc1 (stereo not shown),2.7
8,CN(Cc1ccon1)Cc1cn(C)nc1-c1cccc(Cl)c1,11.1
9,c1ccc(-c2nnc(N3CCOCC3)c3ccccc23)cc1,11
10,O=C(COc1ccc2ccc(=O)oc2c1)Nc1ccc(CN2CCOCC2)cc1,16.9
11,CN(Cc1ccccc1)Cc1nc2c(c(=O)n(C)c(=O)n2C)n1Cc1ccc(Cl)cc1,5.2
12,O=C(O)c1ccccc1C(=O)NCCc1c(C(=O)O)[nH]c2ccc(Cl)cc12,7.89
13,C=CCNc1nc(Nc2ccc(OC)cc2)nc(OC)n1,1.52
14,C=CCSc1nnc(NC(=O)c2cccc(S(=O)(=O)N3CCOCC3)c2)s1,-4.7
15,CC(NC(=O)CSc1n[nH]c(=O)n1C1CC1)C12CC3CC(CC(C3)C1)C2 (stereo not shown),-0.488
16,COc1ccc(N2CCN(c3cc(C)c4ccc(C)cc4n3)CC2)cc1,3.1
17,C[C@@H](CN1C2=NC[C@H](Cc3ccccc3)N2C[C@H]1Cc1ccc(O)cc1)NC(=O)CCC1CCCCC1,-9.4
18,Cc1ccc(-c2cc(=O)c3ccc(Cl)cc3[nH]2)cc1,9.03
19,COc1ccc(CNC(=O)C2CCN(S(=O)(=O)c3ccc4c(c3)CC(C)N4C(=O)C3CC3)CC2)cc1 (stereo not shown),11.3
20,CCOc1ccc(/C(C)=N/NC(=O)c2nnn(-c3nonc3N)c2-c2cccs2)cc1,13.7
21,Cc1cccc([C@@H]2[C@@H]3C(=O)N(Cc4ccccc4)C(=O)[C@@H]3[C@]3(Cc4ccc(Cl)cc4)C(=O)N(c4cccc(Cl)c4)C(=O)N23)c1,2.98

# Reference: publication PMC4336329 (PLoS ONE, 2015)
